Seven molecules from patent US20250326845A1 (LILING BIOPHARMACEUTICALS, published 2025) can be followed below.

The target in experiment [1] is T1, human PD-1 protein (human, UniProt Q15116 part only).
T1 construct: Bought soluble protein; also called PD-1 antigen; human PD-1 antigen
The experiment in a line: BLI (Octet RED 96e), antibody captured on Protein A probe, human PD-1 at 30 or 120 nM. Background: Biolayer interferometry detects binding as a change in optical thickness at a sensor tip.

Experiment [2] deals with T1, human PD-1 protein. The experiment in a line: binding ELISA activity, sample in pH 5.5 buffer at 40 C, 2 weeks.
T1 sequence (Q15116 25-167 limits assumed): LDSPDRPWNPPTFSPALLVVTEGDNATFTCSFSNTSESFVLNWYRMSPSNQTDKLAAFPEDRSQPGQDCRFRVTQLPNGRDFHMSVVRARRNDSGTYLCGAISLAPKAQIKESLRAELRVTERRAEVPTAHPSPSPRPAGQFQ
In experiment [3] the target is T1, human PD-1 protein. The experiment in a line: binding ELISA activity, sample in human serum at 37 C, 4 weeks. Background: In an ELISA, binding on a coated surface is turned into a signal by an enzyme label.
The target of experiment [4] is T1, human PD-1 protein. The experiment in a line: binding ELISA activity, sample in human serum at 37 C, 0 week.
Experiment [5] deals with T1, human PD-1 protein. The experiment in a line: binding ELISA activity, sample in pH 5.5 buffer at 40 C, 4 weeks.
Experiment [6] concerns the target T1, human PD-1 protein. The experiment in a line: binding ELISA activity, sample in pH 5.5 buffer at 40 C, 0 week.
Experiment [7] concerns the target T1, human PD-1 protein. Kind of experiment: binding ELISA activity, sample in human serum at 37 C, 2 weeks.
The target in experiment [8] is T1, human PD-1 protein. The experiment in a line: ELISA, human PD-1 protein coated.

B1: huVHH3-4-Fc (Fc fusion)
chain: EVQLVESGGGLVQPGGSLRLSCAASGRTSSMYAMGWFRQAPGNEREFVAGIGWENNTPYYARSVEGRFTISRDNVKNTVFLQMNRLKPEDTAVYYCAAQIGISGTLGDYWGQGTQVTVSS[letters of human IgG4 Fc with S228P (EU numbers) left out]
A word on the Kd: it is a measure of binding affinity in units of concentration. Low values mean tighter binding, high ones weaker binding. Usually koff stands for the first-order rate constant of dissociation. A lower koff goes with slow dissociation. For orientation: kon means the rate constant with which the complex forms. Read a low kon as slow association. For B1, in experiment [1], the affinity, expressed as Kd, was 4.13 nM; the koff amounted to 0.000308 s⁻¹; the kon came to 74500 M⁻¹ s⁻¹.

B2: huVHH3-5-Fc (Fc fusion)
chain: ELQLVESGGGLVQAGGSLRLSCAASGRTSSMYAMGWFRQAPGNEREFVAGIGWENNTPYYARSVEGRFTISRDNVKNTVFLQMNRLKPEDTAVYYCAAQIGISGTLGDYWGQGTQVTVSS[letters of human IgG4 Fc with S228P (EU numbers) left out]
On to B2, for which the “ELISA binding(%)” value was 104% in experiment [2]; 87.3% in experiment [3]; 82.4% in experiment [4]; 86.5% in experiment [5]; 93.9% in experiment [6]; 82.3% in experiment [7]. In experiment [1], this molecule gave a Kd of 2.66 nM. Moreover, the koff in experiment [1] amounted to 0.000225 s⁻¹. Moreover, the kon in experiment [1] was 84600 M⁻¹ s⁻¹.

B3: huVHH3-2-Fc (Fc fusion)
chain: EVQLVESGGGLVQPGGSLRLSCAASGRTSSMYAMGWFRQAPGNEREFVAGIGWENNTPYYARSVEGRFTISRDNVKNTVYLQMNSLRAEDTAVYYCAAQIGISGTLGDYWGQGTQVTVSS[letters of human IgG4 Fc with S228P (EU numbers) left out]
A word on the EC50: it is the concentration needed to bring the measured effect to its halfway point. Lower therefore signals higher potency in that assay. In experiment [1], B3 had a Kd of 2.92 nM, an off-rate (koff) of 0.000231 s⁻¹ and a kon of 79100 M⁻¹ s⁻¹. In experiment [8], the EC50 amounted to 0.0405 µg/mL.

B4: LL-VHH01-Fc (Fc fusion)
chain: QLQLVESGGGLVQAGGSLRLSCAASGRTSSMYAMGWFRQSPGNEREFVAGIGWENNTPYYARSVEGRFTISRDNVKNTVFLQMNRLKPEDAAVYFCAAQIGISGTLGDYWGQGTQVTVSS[letters of human IgG4 Fc with S228P (EU numbers) left out]
notes: Alpaca VHH fused to hIgG4 Fc, expressed in HEK293 and purified on Protein A; also called PD-1 single domain antibody VHH-Fc fusion protein; PD-1 VHH-Fc fusion protein
In the case of B4, in experiment [1], binding was characterised by a dissociation constant (Kd) of 2.53 nM, the koff was found to be 0.000201 s⁻¹ and the kon was 79400 M⁻¹ s⁻¹. Moreover, in experiment [8], the EC50 is 0.0297 µg/mL.

B5: huVHH3-1-Fc (Fc fusion)
chain: EVQLVESGGGLVQPGGSLRLSCAASGRTSSMYAMGWFRQAPGKGREFVAGIGWENNTPYYARSVEGRFTISRDNVKNTVYLQMNSLRAEDTAVYYCAAQIGISGTLGDYWGQGTQVTVSS[letters of human IgG4 Fc with S228P (EU numbers) left out]
As for B5, the “ELISA binding(%)” value was found to be 106% in experiment [2], 97.8% in experiment [3], 97.1% in experiment [5] and 98.7% in experiment [7]. This molecule came in with a dissociation constant (Kd) in experiment [1] of 2.86 nM. The molecule also showed a koff in experiment [1] of 0.00024 s⁻¹. This molecule also returned a kon in experiment [1] of 84000 M⁻¹ s⁻¹. In addition, a half-maximal effect in experiment [8] (EC50) was put at 0.0293 µg/mL.

B6: huVHH3-6-Fc (Fc fusion)
chain: ELQLVESGGGLVQAGGSLRLSCAASGRTSSMYAMGWFRQAPGNEREFVAGIGWENNTPYYARSVEGRFTISRDNVKNTVFLQMNRLKPEDAAVYFCAAQIGISGTLGDYWGQGTQVTVSS[letters of human IgG4 Fc with S228P (EU numbers) left out]
In experiment [1], B6 returned a dissociation constant Kd of 2.83 nM, a koff of 0.000267 s⁻¹ and a kon of 94200 M⁻¹ s⁻¹. Moreover, in experiment [8], the EC50 turned out to be 0.046 µg/mL.

B7: huVHH3-3-Fc (Fc fusion)
chain: EVQLVESGGGLVQPGGSLRLSCAASGRTSSMYAMGWFRQAPGNEREFVAGIGWENNTPYYARSVEGRFTISRDNVKNTVFLQMNRLRAEDTAVYYCAAQIGISGTLGDYWGQGTQVTVSS[letters of human IgG4 Fc with S228P (EU numbers) left out]
As to B7, the “ELISA binding(%)” value in experiment [2] worked out at 103%; in experiment [3], 102%; in experiment [4], 99%; in experiment [5], 92.9%; in experiment [6], 121%; in experiment [7], 92.2%. In experiment [1], this molecule showed a Kd of 2.49 nM. Besides, the koff in experiment [1] was 0.000222 s⁻¹. In experiment [1], this molecule yielded an association rate constant (kon) of 89100 M⁻¹ s⁻¹. Also, the EC50 in experiment [8] stood at 0.047 µg/mL.
